Results reported in PubChem BioAssay AID360 (National Center for Advancing Translational Sciences (NCATS), 2006).
Among all 48,000 compounds or so, about 550 (1.1%) were called active. Not shown: some 4% with an inconclusive outcome. No stated cut-off is given here; in the data, active means potency below about 15 µM; inconclusive means mostly about 16 µM to 33 µM; inactive means weaker than that. Some of the results follow.

These compounds were tested against Lysosomal acid glucosylceramidase (Homo sapiens) (UniProt P04062) (assay: Glucocerebrosidase). Details: purified enzyme, resorufin glucoside fluorescence (screen aimed at inhibitors), 20 min.
Chain of UniProt P04062 (P04062 whole entry, looked up): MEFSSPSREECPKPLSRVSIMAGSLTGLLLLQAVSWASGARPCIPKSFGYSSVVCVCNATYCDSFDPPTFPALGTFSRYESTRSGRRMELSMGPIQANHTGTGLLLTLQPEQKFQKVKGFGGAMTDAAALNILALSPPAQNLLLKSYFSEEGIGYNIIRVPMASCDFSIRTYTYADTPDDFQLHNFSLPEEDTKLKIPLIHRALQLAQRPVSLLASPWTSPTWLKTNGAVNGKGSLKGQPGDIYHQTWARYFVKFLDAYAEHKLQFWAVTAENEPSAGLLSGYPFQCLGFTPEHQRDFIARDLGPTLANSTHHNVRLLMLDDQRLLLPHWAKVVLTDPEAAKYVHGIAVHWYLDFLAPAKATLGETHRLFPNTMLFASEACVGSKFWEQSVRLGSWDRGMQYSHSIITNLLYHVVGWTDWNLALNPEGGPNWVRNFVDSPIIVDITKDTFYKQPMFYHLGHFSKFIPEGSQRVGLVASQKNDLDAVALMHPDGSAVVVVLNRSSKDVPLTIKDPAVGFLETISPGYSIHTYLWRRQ
Procedure, shortened: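 Wild-type enzyme at 0.2 nM final in 50mM citric acid/KH2PO4, 10mM sodium taurocholate, 0.01% tween-20, pH 5.9, with resorufin beta-D-glucopyranoside at 30 uM final. Compounds titrated, 20 min at RT, red fluorescence read; AC50 from titration.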
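Further: the screen sought inhibitors.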
Potency means the concentration at half of the fitted maximal effect.

Potency, active:
CN(CCNC(=O)C1CC(=O)N(c2ccc(F)c(Cl)c2)C1)Cc1ccccc1 (stereo not drawn) 15.4 µM
CCOC(=O)C1CCCN(C(=O)c2cc3nc(-c4cccc(OC)c4)cc(C(F)(F)F)n3n2)C1 (stereo not drawn) 7.22 µM

Potency, inactive:
CC1CCCN(C(=O)c2cc(F)c(F)cc2Cl)C1 (stereo not drawn) > 76.9 µM
Cc1cc(C(=O)CSc2nnc(NCc3ccccc3)s2)c(C)n1C > 76.9 µM
CCN(c1ccccc1)S(=O)(=O)c1ccc(F)cc1 > 76.9 µM
COc1cccc(C2=NOC(C(=O)NC(C)(C)C)C2)c1 (stereo not drawn) > 76.9 µM
Cc1csc(NC(=O)C2CCCN2C(=O)OCC(C)C)n1 (stereo not drawn) > 76.9 µM
CCN(CC)C(=O)c1n[nH]c(=O)c2ccccc12 > 76.9 µM
CCc1nc(C)ccc1OCC(=O)NCCCN(C)C > 76.9 µM
COc1ccc(NC(=O)CSc2nnc(-c3cccs3)n2C)cc1OC > 76.9 µM
O=C(CN1C(=O)c2cccc3cccc1c23)Nc1cccnc1 > 76.9 µM
Cc1nn(Cc2ccccc2)c(C)c1C(=O)Nc1ccc(N2CCOCC2)cc1 > 76.9 µM
COc1ccc(CCNS(=O)(=O)c2cccc(S(=O)(=O)N3CCCC3)c2)cc1OC > 76.9 µM
COc1ccc(N2C(=O)CSC2c2cccc(F)c2)c(OC)c1 (stereo not drawn) > 76.9 µM
COc1cccc(OC)c1OCC(O)CN1CCN(c2ccccc2)CC1 (stereo not drawn) > 76.9 µM
O=C(Nc1ccon1)c1ccccc1Cl > 76.9 µM
CCOC(=O)CNS(=O)(=O)c1ccc(C(=O)O)cc1 > 76.9 µM
CC(C)(C)NC(=O)CN(C(=O)CCN1CCCc2ccccc21)C(C)(C)C > 76.9 µM
Cc1cc(SCC(=O)N2CCC(c3noc4ccc(F)cc34)CC2)nc2ccccc12 > 76.9 µM
O=C(CN(C(=O)CSc1nnc(COc2ccccc2)o1)c1ccc(F)cc1)NC1CCCCC1 > 76.9 µM
Fc1cccc2sc(N3CCCCC3)nc12 > 76.9 µM
COc1ccc(-c2nnc(CSc3ncnc4sc5c(c34)CCC5)o2)cc1OC > 76.9 µM
N#Cc1nc(-c2cccs2)oc1NCC1CCCO1 (stereo not drawn) > 76.9 µM
COC(=O)C1C2C=CC3(CN(CCc4ccccc4)C(=O)C13)O2 (stereo not drawn) > 76.9 µM
CCOc1ccc(OCC)c(NC(=O)C(NS(=O)(=O)c2ccc3c(c2)oc(=O)n3C)C(C)C)c1 (stereo not drawn) > 76.9 µM
CCn1cc(S(=O)(=O)CC(=O)NC2CCCCC2)c2ccccc21 > 76.9 µM
Cc1ccc(C)c(C(=O)CSc2n[nH]c(C(C)C)n2)c1 > 76.9 µM
CCSc1nnc(NC(=O)C(CC)Oc2ccccc2)s1 (stereo not drawn) > 76.9 µM
COc1cccc(C2C(C#N)=C(N)Oc3cc(C)n(Cc4ccco4)c(=O)c32)c1 (stereo not drawn) > 76.9 µM
O=C(O)c1cc(S(=O)(=O)NCC2CCCO2)ccc1Cl (stereo not drawn) > 76.9 µM
CCc1ccc(CNC(=O)CN2C(=O)COc3ccccc32)cc1 > 76.9 µM
O=C(Nc1nc2ccc(S(=O)(=O)N3CCCC3)cc2s1)C1CCCO1 (stereo not drawn) > 76.9 µM
COCCn1nnnc1C(c1ccccc1OC)N1CCc2ccccc2C1 (stereo not drawn) > 76.9 µM
COc1ccc(C(=O)NC(=O)N2CCCCC2)cc1 > 76.9 µM
O=S(=O)(c1cccc(-c2csc(-c3cccnc3)n2)c1)N1CCCCC1 > 76.9 µM
COCCn1nnnc1CN(Cc1cccnc1)Cc1cc2cc(OC)ccc2[nH]c1=O > 76.9 µM
COc1ccc(C2CCCN2C(=O)Nc2cccc(C(C)=O)c2)cc1OC (stereo not drawn) > 76.9 µM
C=C(C)CC1Nc2ccccc2NC1CC(=C)C (stereo not drawn) > 76.9 µM
COc1ccc(CC(=O)Nc2cc(Cl)ccc2O)cc1 > 76.9 µM
O=C(c1cccc(Cl)c1)N1CCN(Cc2ccccc2F)CC1 > 76.9 µM
O=C1c2cccnc2C(=O)N1c1ccccc1-c1ccccc1 > 76.9 µM
CCCCc1ccc(NC(=O)N[C@H](C(=O)O)C(C)C)cc1 > 76.9 µM
O=C(CCc1ccccc1)Nc1ccc(NC(=O)C2CC2)nc1 > 76.9 µM
CS(=O)(=O)N(CC(=O)O)c1ccc(Oc2ccccc2)cc1 > 76.9 µM
O=C(CCS(=O)(=O)c1ccc(Br)cc1)NCc1cccs1 > 76.9 µM
COc1cc(-c2cccs2)cc(=O)c2c(C)oc(C)c12 > 76.9 µM
Oc1oc(-c2ccco2)nc1C=Nc1ccccc1 > 76.9 µM
Cc1nc(SCC(=O)CC(=O)OC(C)C)c(C#N)c(C)c1C
CCOC(=O)c1[nH]nc2c1C(=O)N(Cc1ccccc1)C2=O > 76.9 µM
Cc1cc(C(F)F)n2nc(C(=O)Nc3c(F)cc(F)cc3Br)nc2n1 > 76.9 µM
CCn1nc(C(=O)OCc2c(C)noc2C)c2ccccc2c1=O > 76.9 µM
O=S(=O)(NC1CC1)c1ccc(S(=O)(=O)N2CCCc3ccccc32)cc1
CC1CCCCN1C(=O)CSc1nnc(-c2ccc(Cl)s2)o1 (stereo not drawn) > 76.9 µM
COCCOCC(O)CN1CCN(c2ccccc2)CC1 (stereo not drawn) > 76.9 µM
Cc1c(C(=O)NCCCN2CCCC2=O)oc2ccc(S(=O)(=O)N3CCOCC3)cc12 > 76.9 µM
Cc1ccccc1-c1nnc(SCC(=O)NC2CCCCC2)o1 > 76.9 µM
Cc1cccn2cc(CNc3ccccc3)nc12 > 76.9 µM
Cc1ccc(CN(Cc2cc3cc(C)ccc3[nH]c2=O)C(=O)N2CCOCC2)cc1 > 76.9 µM
COc1ccccc1NC(=O)c1cc(S(=O)(=O)N2CCOCC2)ccc1Cl > 76.9 µM
O=C(COC(=O)CN1C(=O)C2CC=CCC2C1=O)Nc1cc(C(F)(F)F)ccc1N1CCOCC1 (stereo not drawn) > 76.9 µM
O=C(CSc1nc2ccccc2c(=O)n1-c1ccc(Cl)cc1)c1ccco1 > 76.9 µM
O=C(C1CCCO1)N(c1cccc(Cl)c1)C1C=CS(=O)(=O)C1 (stereo not drawn) > 76.9 µM
O=C(CSc1nnnn1C1CCCC1)NCc1ccc2c(c1)OCO2 > 76.9 µM
O=C(COC(=O)c1ccccc1S(=O)(=O)N1CCCCC1)NCC(F)(F)F > 76.9 µM
CNC(=O)C1CCCN1S(=O)(=O)c1ccc(OC)cc1 (stereo not drawn) > 76.9 µM
COc1ccccc1-c1ccc(=O)n(CC(=O)Nc2ccc(C(=O)N3CCCC3)cc2)n1 > 76.9 µM
O=C(NC1CCCCC1)c1cc2nc(-c3ccco3)cc(C(F)(F)F)n2n1 > 76.9 µM
Cn1c(CN2CCOCC2)nnc1SCC(=O)NC1CCCCC1 > 76.9 µM
CCC1CCCCN1CCCNC(=O)C1CCN(S(=O)(=O)N2CCCCC2)CC1 (stereo not drawn) > 76.9 µM
Cc1ccccc1-c1nc(CN2CCC(C(=O)NCc3cccnc3)CC2)c(C)o1 > 76.9 µM
CN(C)c1ccc(N=Cc2nc(-c3ccccc3)oc2O)cc1 > 76.9 µM
Cc1ccc(CNC(=O)CN2CCN(Cc3ccc(Cl)cc3)C2=O)cc1 > 76.9 µM
COc1ccc(-c2cc(OC)c3c(C)oc(C)c3c(=O)c2)cc1OC > 76.9 µM
O=C(Cn1cnc2c(cnn2-c2ccc(F)cc2)c1=O)OCc1ccccc1 > 76.9 µM
COCCCNC(=O)C1CC(=O)N(Cc2ccc(OC)cc2)C1 (stereo not drawn) > 76.9 µM
COc1ccc(NC(=O)CSc2nccn2-c2ccccc2)c(OC)c1 > 76.9 µM
O=C(Cc1ccc(-n2cccc2)cc1)N1CCN(c2ccccc2F)CC1 > 76.9 µM
COc1ccc(C2C(C(=O)N3CCOCC3)=C(C)NC3=C2C(=O)CC(C)(C)C3)c(OC)c1 (stereo not drawn) > 76.9 µM
O=C(COc1ccc2oc(-c3ccccc3)cc(=O)c2c1)NCc1ccco1 > 76.9 µM
CSc1ccccc1NC(=O)c1cc(-c2cccs2)on1 > 76.9 µM
CC1CN(C(=O)COC(=O)c2cccs2)CC(C)O1 (stereo not drawn) > 76.9 µM
COC(=O)c1c(C)oc(C)c(C(=O)OC)c1=O > 76.9 µM
N#Cc1nc(-c2ccc(OCc3ccccc3)cc2)oc1N1CCOCC1 > 76.9 µM
On1cnnc1-c1ccccc1 > 76.9 µM
CSc1nnc(-c2ccccc2)c(=O)[nH]1 > 76.9 µM
c1ccc(Cn2nnnc2-c2ccco2)cc1 > 76.9 µM
Cn1c(=O)c2c(nc(CN3CCc4ccccc4C3)n2CCc2ccccc2)n(C)c1=O > 76.9 µM
COc1cccc(NC(=O)Cn2nnc(C(=O)Nc3ccccc3)c2N)c1 > 76.9 µM
COc1ccc2c(c1OC)C(=O)N1C2SC[C@H]1C(=O)NC1CC(C)(C)NC(C)(C)C1 (stereo partly drawn) > 76.9 µM
O=C(Cc1ccccc1)Nc1nnc(-c2ccco2)s1 > 76.9 µM
NC(=O)COc1ccc(NC(=O)OCc2ccccc2)cc1 > 76.9 µM
C=CCNc1nc(NCc2ccco2)nc(OCC)n1 > 76.9 µM
CC(C)c1ccc(S(=O)(=O)c2n[nH]n3c2nc(=O)c2ccccc23)cc1 > 76.9 µM
